Patent US20170029494A1 (GlaxoSmithKline, published 2017)
Values joined by “and” are separate entries in the source; they are usually repeats but may differ in a detail not shown here. Equal values may be shown once. One block for each binder: values may come before it.

Tests used:
[1] = molecular target: T1, human VEGF165 (human, UniProt P15692 27-191); test: SPR Biacore T100, Protein A capture, VEGF165 analyte, 37 C, 1:1 model
T1 construct: mature; Two sources were used (GSK in-house HEK293); also called hVEGF165; rhVEGF165
T1 sequence (looked up): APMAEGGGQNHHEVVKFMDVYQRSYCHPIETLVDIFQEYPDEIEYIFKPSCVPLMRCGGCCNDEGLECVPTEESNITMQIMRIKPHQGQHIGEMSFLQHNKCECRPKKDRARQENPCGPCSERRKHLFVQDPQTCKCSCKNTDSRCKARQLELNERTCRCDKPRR

[2] = molecular target: T1, human VEGF165; test: SPR Biacore T100, Protein A capture, VEGF165 analyte, 37 C, 1:1 model (kd: Too tight)
[3] = molecular target: T1, human VEGF165; test: SPR Biacore T100, Protein A capture, VEGF165 analyte, 37 C, 1:1 model (row printed a second time)
[4] = molecular target: T1, human VEGF165; test: MSD RBA, VEGF binding to coated VEGFR1
[5] = molecular target: T1, human VEGF165; test: MSD RBA, VEGF binding to coated VEGFR2 (first set)
[6] = molecular target: T1, human VEGF165; test: SPR Biacore T100, Protein A capture, VEGF165 analyte, 37 C, 1:1 model; remark: listed apart in the source

B1: C085 alb d 3-TFHAD (C-terminal Fc fusion of K-044-085 dAb (Albumin Domain 3-TFHAD)) (Fc fusion)
chain: [human IgG1 Fc not shown]EVDETYVPKEFNAETFDIQMTQSPSSLSASVGDRVTITCRASQWIGPELKWYQQKPGKAPKLLIYHGSILQSGVPSRFSGSGSGTDFTLTISSLQPEDFATYYCQQYMYYPHTFGQGTKVEIKR
notes: not certain; also called C085 Alb DOM3
Kd [1]: 13.2 pM
koff [1]: 8.12e-05 s⁻¹
kon [1]: 6.17e+06 M⁻¹ s⁻¹

B2: C085 alb d 2 (C-terminal Fc fusion of K-044-085 dAb (Albumin Domain 2)) (Fc fusion)
chain: [human IgG1 Fc not shown]ENDEMPADLPSLAADFVESKDDIQMTQSPSSLSASVGDRVTITCRASQWIGPELKWYQQKPGKAPKLLIYHGSILQSGVPSRFSGSGSGTDFTLTISSLQPEDFATYYCQQYMYYPHTFGQGTKVEIKR
notes: Vk Fc-dAb; dimer; also called C085 Alb DOM2
kon [2]: 7.52e+06 M⁻¹ s⁻¹

B4: C085 alb d 1 (C-terminal Fc fusion of K-044-085 dAb (Albumin Domain 1)) (Fc fusion)
chain: [human IgG1 Fc not shown]HKDDNPNLPRLVRPEVDVMDIQMTQSPSSLSASVGDRVTITCRASQWIGPELKWYQQKPGKAPKLLIYHGSILQSGVPSRFSGSGSGTDFTLTISSLQPEDFATYYCQQYMYYPHTFGQGTKVEIKR
notes: Vk Fc-dAb; dimer; also called C085 Alb DOM1
Kd [1]: 27 pM
koff [1]: 0.000112 s⁻¹
kon [1]: 4.15e+06 M⁻¹ s⁻¹
Kd [3]: 27 pM
koff [3]: 0.000112 s⁻¹
kon [3]: 4.15e+06 M⁻¹ s⁻¹

B5: DMS30009 (DT02-K-044-085-AS Linker-Fc-Albumin Domain 3 Linker-DT02-K-044-085 Vk-Vk dAb-Fc-dAb) (Fc fusion)
chain: DIQMTQSPSSLSASVGDRVTITCRASQWIGPELKWYQQKPGKAPKLLIYHGSILQSGVPSRFSGSGSGTDFTLTISSLQPEDFATYYCQQYMYYPHTFGQGTKVEIKR[human IgG1 Fc and a few adjoining residues not shown]EVDETYVPKEFNAETFTFHADDIQMTQSPSSLSASVGDRVTITCRASQWIGPELKWYQQKPGKAPKLLIYHGSILQSGVPSRFSGSGSGTDFTLTISSLQPEDFATYYCQQYMYYPHTFGQGTKVEIKR
EC50 [4]: 0.00417 µg/mL and 0.042 nM
Max. % Inhibition [4]: 92.6%
EC50 [5]: 0.00552 µg/mL and 0.055 nM
Max. % Inhibition [5]: 86.6%
Kd [6]: 2.3 pM

B7: C085 G4Sx3 (C-terminal Fc fusion of K-044-085 dAb ((Gly4Ser)x3)) (Fc fusion)
chain: [human IgG1 Fc not shown]GGGGSGGGGSGGGGSDIQMTQSPSSLSASVGDRVTITCRASQWIGPELKWYQQKPGKAPKLLIYHGSILQSGVPSRFSGSGSGTDFTLTISSLQPEDFATYYCQQYMYYPHTFGQGTKVEIKR
notes: Vk Fc-dAb; dimer
Kd [1]: 29.1 pM
koff [1]: 0.00018 s⁻¹
kon [1]: 6.19e+06 M⁻¹ s⁻¹

B8: DMS30010 (DT02-K-044-085-AAAS Linker-Fc-Albumin Domain 3 Linker-DT02-K-044-085 Vk-Vk dAb-Fc-dAb) (Fc fusion)
chain: DIQMTQSPSSLSASVGDRVTITCRASQWIGPELKWYQQKPGKAPKLLIYHGSILQSGVPSRFSGSGSGTDFTLTISSLQPEDFATYYCQQYMYYPHTFGQGTKVEIKRAA[human IgG1 Fc and a few adjoining residues not shown]EVDETYVPKEFNAETFTFHADDIQMTQSPSSLSASVGDRVTITCRASQWIGPELKWYQQKPGKAPKLLIYHGSILQSGVPSRFSGSGSGTDFTLTISSLQPEDFATYYCQQYMYYPHTFGQGTKVEIKR
Kd [6]: 3.1 pM

Next, values leading:

kon [2]: 8.74e+06 M⁻¹ s⁻¹
B3: DMS30013 (C-terminal Fc fusion of K-044-085 dAb, Albumin Domain 3 Linker, Fc-dAb) (Fc fusion)
chain: [human IgG1 Fc and a few adjoining residues not shown]EVDETYVPKEFNAETFTFHADDIQMTQSPSSLSASVGDRVTITCRASQWIGPELKWYQQKPGKAPKLLIYHGSILQSGVPSRFSGSGSGTDFTLTISSLQPEDFATYYCQQYMYYPHTFGQGTKVEIKR
notes: Vk Fc-dAb, Fc starts AS

Kd [6]: 4.6 pM
B6: DMS30011 (DT02-K-044-251-AS Linker-Fc-Albumin Domain 3 Linker-DT02-K-044-251 Vk-Vk dAb-Fc-dAb) (Fc fusion)
chain: DIQMTQSPSSLSASVGDRVTITCRASQWIGPELKWYQQKPGKAPKLLIYHGSILQSGVPSRFSGSGSGTDFTLTISSLQPEDFATYYCQQYMYYPETFGQGTKVEIKR[human IgG1 Fc and a few adjoining residues not shown]EVDETYVPKEFNAETFTFHADDIQMTQSPSSLSASVGDRVTITCRASQWIGPELKWYQQKPGKAPKLLIYHGSILQSGVPSRFSGSGSGTDFTLTISSLQPEDFATYYCQQYMYYPETFGQGTKVEIKR

Kd [6]: 4.6 pM
B9: DMS30012 (DT02-K-044-251-AAAS Linker-Fc-Albumin Domain 3 Linker-DT02-K-044-251 Vk-Vk dAb-Fc-dAb) (Fc fusion)
chain: DIQMTQSPSSLSASVGDRVTITCRASQWIGPELKWYQQKPGKAPKLLIYHGSILQSGVPSRFSGSGSGTDFTLTISSLQPEDFATYYCQQYMYYPETFGQGTKVEIKRAA[human IgG1 Fc and a few adjoining residues not shown]EVDETYVPKEFNAETFTFHADDIQMTQSPSSLSASVGDRVTITCRASQWIGPELKWYQQKPGKAPKLLIYHGSILQSGVPSRFSGSGSGTDFTLTISSLQPEDFATYYCQQYMYYPETFGQGTKVEIKR
